Measured values from paper PMC10277598.
Results are given in words; binding and its absence hold for the method and conditions named. Some results given as binding are weak or reduced against the parent protein; the word gives no strength. Each block holds one binder with its values, some of them ahead of it.

Columns and labels:
[1] = target: T1, T25-ArcA hybrid protein (Escherichia coli) (UniProt P0A9Q1); experiment: two-hybrid; bacterial adenylate cyclase two-hybrid (T25 and T18 fusions) in E. coli BTH101 (cya-), 30 °C, 0.5 mM IPTG; blue colonies on X-gal agar plates and β-galactosidase activity of liquid cultures at A600 0.6
T1 sequence: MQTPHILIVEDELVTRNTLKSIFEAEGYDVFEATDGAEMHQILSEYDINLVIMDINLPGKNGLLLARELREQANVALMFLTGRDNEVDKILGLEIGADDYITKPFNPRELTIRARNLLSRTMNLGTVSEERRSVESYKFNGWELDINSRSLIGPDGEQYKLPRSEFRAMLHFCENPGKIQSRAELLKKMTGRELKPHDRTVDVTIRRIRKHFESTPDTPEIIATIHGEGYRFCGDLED

[2] = target: T2, T25-BarA hybrid protein (Escherichia coli) (UniProt P0AEC5); experiment: as above
T2 sequence: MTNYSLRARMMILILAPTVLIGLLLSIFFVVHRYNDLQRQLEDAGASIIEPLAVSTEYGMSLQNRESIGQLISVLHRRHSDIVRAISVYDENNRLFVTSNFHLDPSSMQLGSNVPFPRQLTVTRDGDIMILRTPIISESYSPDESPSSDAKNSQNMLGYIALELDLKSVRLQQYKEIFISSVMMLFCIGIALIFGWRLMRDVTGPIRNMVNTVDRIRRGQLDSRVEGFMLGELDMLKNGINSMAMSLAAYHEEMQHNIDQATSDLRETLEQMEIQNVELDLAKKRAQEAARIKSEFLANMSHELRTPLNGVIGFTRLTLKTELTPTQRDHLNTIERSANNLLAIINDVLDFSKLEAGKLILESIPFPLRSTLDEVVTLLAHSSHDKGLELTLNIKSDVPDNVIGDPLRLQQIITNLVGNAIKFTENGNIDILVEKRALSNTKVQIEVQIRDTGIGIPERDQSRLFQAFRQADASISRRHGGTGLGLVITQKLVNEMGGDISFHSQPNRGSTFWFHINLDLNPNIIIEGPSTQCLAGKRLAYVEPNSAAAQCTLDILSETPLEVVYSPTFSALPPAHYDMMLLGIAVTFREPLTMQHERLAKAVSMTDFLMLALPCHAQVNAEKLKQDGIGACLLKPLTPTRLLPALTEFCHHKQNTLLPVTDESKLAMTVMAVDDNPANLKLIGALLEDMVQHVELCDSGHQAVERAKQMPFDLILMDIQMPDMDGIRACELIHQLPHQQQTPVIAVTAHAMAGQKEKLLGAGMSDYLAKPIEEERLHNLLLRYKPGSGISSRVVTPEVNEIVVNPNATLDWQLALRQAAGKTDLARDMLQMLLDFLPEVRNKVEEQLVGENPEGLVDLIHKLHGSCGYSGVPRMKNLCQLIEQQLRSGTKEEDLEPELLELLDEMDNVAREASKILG

binding [1]: no binding | binding [2]: binds
B1: T18-HflC hybrid protein (protein, UniProt P0ABC3 1-334)
chain: MRKSVIAIIIIVLVVLYMSVFVVKEGERGITLRFGKVLRDDDNKPLVYEPGLHFKIPFIETVKMLDARIQTMDNQADRFVTKEKKDLIVDSYIKWRISDFSRYYLATGGGDISQAEVLLKRKFSDRLRSEIGRLDVKDIVTDSRGRLTLEVRDALNSGSAGTEDEVTTPAADNAIAEAAERVTAETKGKVPVINPNSMAALGIEVVDVRIKQINLPTEVSEAIYNRMRAEREAVARRHRSQGQEEAEKLRATADYEVTRTLAEAERQGRIMRGEGDAEAAKLFADAFSKDPDFYAFIRSLRAYENSFSGNQDVMVMSPDSDFFRYMKTPTSATR

binding [1]: no binding | binding [2]: binds
B2: T18-HflK hybrid protein (protein, UniProt P0ABC7 1-419)
chain: MAWNQPGNNGQDRDPWGSSKPGGNSEGNGNKGGRDQGPPDLDDIFRKLSKKLGGLGGGKGTGSGGGSSSQGPRPQLGGRVVTIAAAAIVIIWAASGFYTIKEAERGVVTRFGKFSHLVEPGLNWKPTFIDEVKPVNVEAVRELAASGVMLTSDENVVRVEMNVQYRVTNPEKYLYSVTSPDDSLRQATDSALRGVIGKYTMDRILTEGRTVIRSDTQRELEETIRPYDMGITLLDVNFQAARPPEEVKAAFDDAIAARENEQQYIREAEAYTNEVQPRANGQAQRILEEARAYKAQTILEAQGEVARFAKLLPEYKAAPEITRERLYIETMEKVLGNTRKVLVNDKGGNLMVLPLDQMLKGGNAPAAKSDNGASNLLRLPPASSSTTSGASNTSSTSQGDIMDQRRANAQRNDYQRQGE

binding [2]: no binding
B3: T18-ArcA hybrid protein (protein, UniProt P0A9Q1 1-238)
chain: T1 sequence
